Test results from PubChem BioAssay AID463173 (ICCB-Longwood Screening Facility, Harvard Medical School, 2010).
Hit rate of the full screen: of about 52,000 compounds, about 4,300 (8.3%) were called active. Rule as the data show it: active = survival mostly below about 52% (no sharp cut-off); inactive = mostly above about 56%. The list shows a part of the results.

These compounds were tested on DeltatarO mutant (assay: growth inhibition of S. aureus wild type versus tarO mutant, primary screen, teichoic acid synthesis inhibitors, RN4220, OD600 (AID 463173)). Conditions: OD600, 18 h, hits give low values, screened at 18.75 µg/mL (by protocol).
In the case of `O=C1OC2(c3ccccc3)C3CCCC2C13`, the survival is reported as inactive: 121%. In the case of `O=C(Nc1cc(F)ccc1F)N1CCC(CN2CCOCC2)CC1`, the survival is reported as inactive: 87%. For `COc1ccc(-n2cc(-c3ccccc3)c3c(NC4CCCCC4)ncnc32)cc1`, the survival was inactive: 123%. `COc1ccc(CCNC(=O)Cc2nn(C)c(=O)c3ccccc23)cc1OC` was tested, and the survival was inactive: 97%. `O=C(/C=C/c1ccccc1)Nc1ccc2c(c1)OCCO2` was tested, and the survival was inactive: 76%. In the case of `CN(C)c1ccc(CNC(=O)C2CCCN(S(=O)(=O)c3ccc4c(c3)oc(=O)n4C)C2)cc1` (stereo not given), the survival is reported as inactive: 96%. For `NC(Cc1ccc2nsnc2c1)C(=O)O` (stereo not given), the survival was inactive: 82%. For `CCc1nonc1NC(=O)c1oc2ccc(F)cc2c1C`, the survival was inactive: 84%. For `CCc1c(C)nc(N)n2c(SCc3ccc(C(F)(F)F)cc3)nnc12`, the survival was inactive: 103%. For `COc1ccc(CCNC(=O)C(=O)NCC(c2ccc3c(c2)OCO3)N2CCOCC2)cc1` (stereo not given), the survival was active: 32%. With `CC1=C(C(=O)Nc2ccc(Cl)cc2)C(c2ccccc2C)n2ncc(C(=O)Nc3ccc(C)cc3)c2N1` (stereo not given) the survival was inactive: 54%. With `CCN1C(=O)c2ccccc2Sc2ccc(NC(=O)COc3ccc(Cl)cc3)cc21` the survival was inactive: 91%. In the case of `CCOc1ccc(-n2c(SCC(=O)Nc3cccc(Cl)c3)nc3c(oc4ccccc43)c2=O)cc1`, the survival is reported as inactive: 58%. `COc1ccc(C(=O)CC2(O)C(=O)Nc3c(C)cccc32)c(OC)c1OC` (stereo not given) was tested, and the survival was inactive: 84%. With `CCOc1ccc(-c2cnc(NCc3ccc(C(F)(F)F)cc3)n2C)cc1` the survival was active: -3%. With `Cn1c(=O)n(C/C=C/c2ccccc2)c(=O)c2c1nc1n2CCN1c1ccc(F)cc1` the survival was inactive: 67%. In the case of `COc1ccc(S(=O)(=O)NCCc2sc(C)nc2C)cc1F`, the survival is reported as inactive: 88%. In the case of `Cc1ccc2c(CC(=O)Nc3cccc(Cl)c3C)coc2c1`, the survival is reported as inactive: 100%. For `Cc1cccc(OCCCCn2c(C3CC(=O)N(c4ccccc4Cl)C3)nc3ccccc32)c1` (stereo not given), the survival was active: 10%. With `O=C1c2ccccc2C(=O)N1CCc1c[nH]c2ccccc12` the survival was inactive: 93%. In the case of `CCN(CC)c1cc(C)c2cc(NC(=O)c3ccc(OC)c(OC)c3)ccc2n1`, the survival is reported as active: 35%. With `CCOC(=O)c1scc(-c2ccccc2)c1S(=O)(=O)N1CCN(c2ccc(Cl)cc2)CC1` the survival was inactive: 88%. In the case of `COc1cccc(N2CCN(C(=O)c3cnc4c(-c5ccccc5)c(C)nn4c3C)CC2)c1`, the survival is reported as inactive: 87%. `COc1ccccc1C(=O)Nc1c(C(=O)Nc2cc(Cl)ccc2C)sc2nc(C)cc(C)c12` was tested, and the survival was inactive: 59%. With `O=C(Nc1ccccc1)c1cnc(N2CCCCC2)c2ccccc12` the survival was inactive: 72%. For `COc1ccc(-c2cc(C)no2)cc1S(=O)(=O)N1CCN(c2cccc(C)c2)C(C)C1` (stereo not given), the survival was inactive: 77%. With `Cc1ccccc1NC(=O)NCCc1c[nH]c2ccccc12` the survival was inactive: 47%. In the case of `COc1cccc(CN(C(=O)COc2ccc(Cl)c(C)c2)C2CCS(=O)(=O)C2)c1` (stereo not given), the survival is reported as inactive: 71%. For `O=C(Cn1c(=O)n(-c2ccccc2)c(=O)c2c3c(sc21)CCC3)c1ccc(F)cc1`, the survival was inactive: 63%. With `Cc1c(Cl)cccc1-n1ncc(C(=O)NCCN2CCN(C)CC2)c1C1CCN(C(=O)OC(C)(C)C)CC1` the survival was inactive: 75%. `Cc1ccc(Sc2ccc(N3CCC(C(=O)Nc4cc(C)cc(C)c4)CC3)nn2)cc1` was tested, and the survival was inactive: 76%. `Cc1ccc(C2CC(=O)n3nc(-c4ccc(Cl)cc4)nc3S2)cc1` (stereo not given) was tested, and the survival was inactive: 84%. For `CCc1ccc(NC(=O)CSc2nc3c([nH]c4ccccc43)c(=O)n2-c2ccc(C)cc2)cc1`, the survival was inactive: 134%. `Cc1ccc(CNC(=O)CCS(=O)(=O)c2cc3c4c(c2)CCN4C(=O)CC3)cc1` was tested, and the survival was inactive: 67%. With `O=C(Nc1ccc(Cl)cc1)c1cnn2c1NC(c1ccccc1)=CC2c1ccccc1` (stereo not given) the survival was inactive: 47%. In the case of `COc1ccc(N2CCN(C(=O)c3cc4sccc4n3Cc3ccccc3)CC2)cc1`, the survival is reported as inactive: 92%. With `O=C1CC(C(=O)O)C2(CCCC2)O1` (stereo not given) the survival was inactive: 119%. `CCc1ccccc1NC(=O)CN(C)S(=O)(=O)c1cccc2nsnc12` was tested, and the survival was inactive: 92%. `COc1ccc(-c2ccc(NS(=O)(=O)c3ccc(NC(C)=O)cc3)cc2)nn1` was tested, and the survival was inactive: 81%. In the case of `COc1ccc(OC)c(NC(=O)c2c(NCc3cccs3)sc3c2CCCCC3)c1`, the survival is reported as inactive: 67%. In the case of `CCN(CC)c1ccc(NC(=O)c2c(C)nn(-c3ccc(F)cc3)c2-n2cccc2)c(C)c1`, the survival is reported as inactive: 99%. With `COc1cccc2cc(C(=O)N3CCN(c4cc(C)ccc4C)CC3)c(=O)oc12` the survival was inactive: 56%. For `N#CCSc1nnc(CNc2ccc(Cl)cc2)n1-c1ccccc1`, the survival was inactive: 72%. `Fc1ccccc1Nc1c2c(nc3ccccc13)CCC2` was tested, and the survival was inactive: 95%. In the case of `Cc1nc(SCC(=O)N2CCN(c3ccccc3)CC2)[nH]c(=O)c1C`, the survival is reported as inactive: 80%. In the case of `Cc1[nH]c2ccc(C(=O)N3CCN(c4ccccc4F)CC3)cc2c1C`, the survival is reported as inactive: 67%. `CCN(CC)S(=O)(=O)c1ccc(NC(=O)Cn2ncc3c([nH]c4ccccc43)c2=O)cc1` was tested, and the survival was inactive: 85%. In the case of `CC(Oc1ccccc1)C(=O)Nc1ccc(C(=O)OCc2cc(=O)n3nc(C(C)C)sc3n2)cc1` (stereo not given), the survival is reported as inactive: 90%. `CCOc1ccc(/C=C/c2nc(C#N)c(N3CCN(CC)CC3)o2)cc1` was tested, and the survival was inactive: 70%. With `COc1ccc(-c2noc(N3CCC(C(=O)Nc4cccc(C)c4C)CC3)n2)cc1` the survival was inactive: 83%. For `CCc1ccc(NC(=O)CSc2nc3nc(C)cc(C)n3n2)cc1`, the survival was inactive: 77%. In the case of `CCOc1cc(CNC(=O)c2cc(-c3ccccc3)n[nH]2)cc(OCC)c1OCC`, the survival is reported as inactive: 98%. In the case of `COc1ccc(CCNC(=O)c2ccc3c(c2)CCN3S(=O)(=O)c2ccccc2)cc1`, the survival is reported as active: 44%. In the case of `O=C(CN1C(=O)C2(SCC(=O)N2c2ccc(F)c(F)c2)c2ccccc21)NCCc1ccccc1` (stereo not given), the survival is reported as inactive: 78%. With `COc1cc(/C=C/C(=O)C2CC2)cc(OC)c1OC` the survival was inactive: 76%. For `COc1ccc(N2CCN(C(=O)c3cc4c(=O)n(Cc5cccnc5)ccc4nc3C)CC2)cc1`, the survival was inactive: 98%. `COc1ccc(CCNC(=O)c2cnn(-c3ccc(F)cc3)c2C2CCN(C(=O)OC(C)(C)C)CC2)cc1OC` was tested, and the survival was inactive: 87%. In the case of `COc1ccc(NC(=O)c2oc3ccc(S(=O)(=O)N4CCOCC4)cc3c2C)c(OC)c1`, the survival is reported as inactive: 129%. For `CCOc1cc(C(c2c(C)[nH]n(-c3ccccc3)c2=O)c2c(C)[nH]n(-c3ccccc3)c2=O)ccc1O`, the survival was inactive: 67%. With `COC(=O)c1cc(NS(=O)(=O)c2ccc3c(c2)OCCO3)ccc1Cl` the survival was inactive: 65%. For `CCOc1ccccc1NC(=O)CSc1nc2ccccc2nc1N1CCOCC1`, the survival was active: 4%. `Cc1cc(C)cc(OCC(=O)Nc2nc(-c3ccc(F)cc3)ns2)c1` was tested, and the survival was inactive: 89%. `Cc1ccccc1NC(=O)CSc1c(C(C)C)cnc2c1c(=O)n(C)c(=O)n2C` was tested, and the survival was inactive: 80%. `CN(C(=O)CSc1nc2ccc(NC(=O)c3cccc(F)c3)cc2s1)c1ccccc1` was tested, and the survival was inactive: 69%. `CN(C)N1C(=O)/C(=C/c2cccs2)SC1=Nc1ccccc1` was tested, and the survival was inactive: 100%. With `COc1cc(Cl)c(C)cc1NC(=O)CC1Oc2ccccc2NC1=O` (stereo not given) the survival was inactive: 60%. `COc1ccc(Cn2c(C(=O)O)c(CNCc3ccc(OC)cc3OC)c3ccc(C)cc32)cc1` was tested, and the survival was inactive: 83%. `COc1ccc(NC(=O)CSCc2cc(=O)c3cc(C)ccc3[nH]2)cc1` was tested, and the survival was inactive: 68%. With `CCC(Sc1nc2nccnc2c(=O)n1Cc1ccccc1Cl)C(=O)NC1CCCCC1` (stereo not given) the survival was inactive: 99%. `O=S(=O)(c1ccc(C2CCCCC2)cc1)N1CCN(c2cc(Cl)ccc2Cl)CC1` was tested, and the survival was inactive: 72%. With `COc1ccc(-n2c(/C=C/c3cccc4ccccc34)nc3ccccc3c2=O)cc1OC` the survival was inactive: 90%. In the case of `Cc1ccc2nc(NCc3ccccc3)c3nncn3c2c1`, the survival is reported as inactive: 86%. In the case of `CCn1cc(C(=O)NCCc2ccc(Cl)cc2)c(=O)c2cc(S(=O)(=O)N(C)C3CCCCC3)ccc21`, the survival is reported as inactive: 84%. With `COc1ccc(NC(=O)c2c(NCc3ccc(C)o3)sc3c2CCCCC3)c(OC)c1` the survival was inactive: 107%. In the case of `COc1ccc(C(=O)Nc2ccc(-c3nc4ncccc4o3)cc2C)cc1Br`, the survival is reported as active: 37%. For `CCn1c(=O)c2cc(C(=O)Nc3cccc(C(F)(F)F)c3)sc2c2ccccc21`, the survival was inactive: 84%. `O=C(c1cc2sccc2n1Cc1ccccc1)N1CCN(c2ccccc2F)CC1` was tested, and the survival was inactive: 68%. With `CCNC(=O)CCCN1C(=O)CCn2nc(-c3cccn3C)cc21` the survival was inactive: 70%. In the case of `COc1ccc(NC(=O)CC2Oc3ccc(C)cc3NC2=O)cc1Cl` (stereo not given), the survival is reported as inactive: 68%. With `Cc1cc(C)cc(-n2ccn(CC(=O)NCCc3ccccc3)c(=O)c2=O)c1` the survival was inactive: 75%. For `COc1cc2c(cc1OC)C(COc1ccc3c(C)cc(=O)oc3c1)N(C(=O)Cc1ccc(F)cc1)CC2` (stereo not given), the survival was inactive: 80%. `Cc1cccc(N(CC(=O)NCCc2ccccc2)S(=O)(=O)c2ccccc2)c1C` was tested, and the survival was active: 56%. `CCOc1ccc(C2C(=O)N(C3CCCCCC3)CC(=O)N2Cc2ccc(C)cc2)cc1OC` (stereo not given) was tested, and the survival was inactive: 96%. For `COc1ccc(CCNC(=O)c2cc3c(=O)n4cccc(C)c4nc3n2C)cc1`, the survival was inactive: 67%. With `Cc1ccc(-c2csc(-c3c(N)c(C(=O)c4ccc5c(c4)OCO5)n4ccccc34)n2)cc1C` the survival was inactive: 84%. For `O=C(C[n+]1ccccc1)Nc1ccccc1`, the survival was inactive: 79%. With `COc1ccc2c(C)c(CCC(=O)NCc3cccc(Cl)c3)c(=O)oc2c1` the survival was inactive: 73%. For `Cc1cccc(CSCCNC(=O)C2CCN(S(=O)(=O)Cc3ccccc3)CC2)c1`, the survival was inactive: 72%. For `CCC(CC)C(=O)Nc1nnc(S(=O)(=O)N(C)c2cc(C)cc(C)c2)s1`, the survival was inactive: 80%. With `Cc1c(Cl)cccc1NC(=O)c1oc2ccc(S(=O)(=O)N3CCCCCC3)cc2c1C` the survival was inactive: 73%.
